PubChem BioAssay AID463173 (ICCB-Longwood Screening Facility, Harvard Medical School, 2010)
About 1,700 (3.3%) of roughly 52,000 compounds were called active. Rule as the data show it: active = survival mostly below about 52% (no sharp cut-off); inactive = mostly above about 56%. This is one part of the list.

Test system: Wild type
Assay: S. aureus survival, RN4220 and DeltatarO strains – OD600, teichoic acid synthesis inhibitors, primary screen (AID 463173)
Details: S. aureus RN4220 wild type/DeltatarO growth, OD600, 18 h, active compounds read low, screened at 18.75 µg/mL (by protocol)

Row | Compound | survival
1 | COc1ccc(S(=O)(=O)n2nc(-c3ccco3)nc2NCc2ccc(OC)c(OC)c2)cc1 | inactive: 81%
2 | C/C=C/NC(=O)c1nc2c(nnn2Cc2ccc(C)cc2)c(=O)[nH]1 | inactive: 99%
3 | COc1cccc(-c2[nH]c3c(c2-c2c(-n4cccc4)n(C)c(=O)[nH]c2=O)c(=O)[nH]c(=O)n3C)c1 | inactive: 86%
4 | CN(C)c1ccc(CNC(=O)CCn2c(=O)c3cccn3c3ccc(F)cc32)cc1 | inactive: 80%
5 | COCCCNc1nc2c(c(=O)n(C)c(=O)n2C)n1Cc1ccccc1 | inactive: 106%
6 | COCCOC(=O)C1=C(C)N=C2SCCC(=O)N2C1c1ccc(OCc2ccccc2)c(OC)c1 (stereo unspecified) | inactive: 64%
7 | CC(C)COC(=O)Nc1ccc2c(c1)OCO2 | inactive: 102%
8 | COc1ccccc1N1CCN(c2cc(C)nc3c(-c4ccc(Cl)cc4)c(C)nn23)CC1 | inactive: 76%
9 | CCc1nnc2c(NCc3cccc(OC)c3)nc3ccccc3n12 | inactive: 87%
10 | COCCNC(=O)CCSc1nc(-c2ccc3c(c2)OCO3)cc(C(F)(F)F)n1 | inactive: 60%
11 | Cc1ccc(C(=O)N2CCc3cc(CNC(=O)c4ccnn4C)ccc32)cc1 | inactive: 77%
12 | CCN(CC)S(=O)(=O)c1ccc2c(c1)c(=O)c(C(=O)NCc1ccccc1OC)cn2C | inactive: 80%
13 | CCOC(=O)C1=C(N)OC2=C(C(=O)CC(C)(C)C2)C1c1ccccc1 (stereo unspecified) | inactive: 115%
14 | O=C(NCc1ccc2c(c1)CCN2C(=O)c1ccccc1)c1ccc(Br)o1 | inactive: 69%
15 | Cc1cn(C)c(CC(=O)N2CCN(c3ccc(F)cc3)CC2)c1C(=O)O | inactive: 133%
16 | Cc1ccc(NS(=O)(=O)c2ccc3c(c2)NC(=O)CCS3)cc1F | inactive: 63%
17 | COC(=O)c1ccccc1NC(=O)Cn1nc(C(F)(F)F)c2c1CCCC2 | active: -5%
18 | CC1CCCCN1c1nc(-c2ccc(C(C)(C)C)cc2)nc2ccccc12 (stereo unspecified) | active: 1%
19 | COc1cc(NC(=O)Cn2c(=O)nc(-c3ccccc3F)c3cc(Cl)ccc32)cc(OC)c1 | inactive: 124%

Row | Compound | survival
20 | Cc1ccc(C)c(N2CCN(C(=O)Cn3c(C)c4cnn(-c5ccccc5)c(=O)c4c3C)CC2)c1 | inactive: 116%
21 | CCN(C(=O)Cn1cc(C(=O)c2ccc(F)cc2)c(=O)c2ccc(C)nc21)c1cccc(C)c1 | inactive: 70%
22 | Cc1sc2nc(C)n(NC(N)=O)c(=O)c2c1C | inactive: 96%
23 | CCOc1ccc(C(=O)N2CCC(c3ccncc3)CC2)cc1 | inactive: 78%
24 | CCCCOc1ccc(CNC(=O)c2cnc3sc(N4CCC(C)CC4)nn3c2=O)cc1 | inactive: 127%
25 | COc1cccc(-n2c(-c3ccc(C)cc3)cc3c2CC(C)(C)CC3=O)c1 | inactive: 21%
26 | CCC1CN(C(=O)N2CCC(C(=O)NCc3ccco3)CC2)c2cc(C)ccc2O1 (stereo unspecified) | inactive: 87%
27 | CC(C)c1nc2ccc(C(=O)NCCCN3CCN(c4ccc(F)cc4)CC3)cc2o1 | inactive: 81%
28 | CC(C)c1ccc2occ(CC(=O)Nc3cccc(C(F)(F)F)c3)c2c1 | active: 0%
29 | COc1ccc(OC)c(NC(=O)CCc2c(C)nc3c(c(C)nn3C(C)(C)C)c2C)c1 | inactive: 90%
30 | Cc1cc(C)c2c(CC(=O)Nc3c(C(=O)c4ccc(F)cc4)oc4ccccc34)coc2c1 | inactive: 89%
31 | Cc1ccc2c(c1)CC(C)N2S(=O)(=O)c1nnc(NC(=O)CC(C)C)s1 (stereo unspecified) | inactive: 82%
32 | CCc1ccc(NC(=O)c2ccc3c(O)c(S(=O)(=O)c4ccccc4)c(=O)[nH]c3c2)cc1 | inactive: 84%
33 | COc1ccccc1C(=O)Nc1ccc(OCc2cc(=O)n3cccc(C)c3n2)cc1 | inactive: 78%
34 | Cc1c(NC(=O)c2ccc(Cl)cc2)cc(C(C)C)c(O)c1S(=O)(=O)c1ccccc1 | inactive: 76%
35 | CCOC(=O)Cn1nc[n+]2[nH]c(C)cc(=O)c12 | inactive: 106%
36 | COc1ccccc1CNC(=O)CCc1c(C)nn(-c2ccc(N3CCCC3)nn2)c1C | inactive: 68%
37 | O=C(NCC1CCN(Cc2ccccc2Cl)CC1)c1cc2ccc3cccnc3c2[nH]1 | inactive: 45%
38 | Cc1cc(NC(=O)CSc2nc3c([nH]c4ccccc43)c(=O)n2-c2ccc(Cl)cc2)no1 | inactive: 77%

Row | Compound | survival
39 | COc1ccccc1CNC(=O)CCS(=O)(=O)c1ccc2c(c1)CC(C)N2C(=O)C1CC1 (stereo unspecified) | active: 0%
40 | Cc1cc(=O)n(Cc2ccccc2Cl)c2c1c(C)nn2-c1ccccc1 | inactive: 73%
41 | O=c1oc2ccc(F)cc2cc1-c1nc(-c2cccs2)no1 | inactive: 94%
42 | Cc1ccc(CSc2nc3ccsc3c(=O)n2CCC(C)C)cc1 | active: -6%
43 | O=C(CC1Oc2ccccc2NC1=O)NCc1ccc(F)cc1 (stereo unspecified) | inactive: 128%
44 | COc1ccc(CC(=O)Nc2nnc3n2CCS3)cc1 | inactive: 127%
45 | CCn1c2c(c(=O)n3ncc(C(=O)Nc4ccc(F)cc4Cl)c13)CN(Cc1ccc(OC)cc1)CC2 | active: 14%
46 | CCN1CCN(C(=O)c2ccc3c(c2)N(Cc2ccc(F)cc2)C(=O)c2ccccc2S3(=O)=O)CC1 | inactive: 126%
47 | Cc1cccc(OCc2nnc(-c3ccccc3)o2)c1 | inactive: 73%
48 | COc1cccc(NC(=O)c2sc3nc(C)c(C(=O)Nc4ccc(C)cc4C)c(-c4cccs4)c3c2N)c1 | inactive: 145%
49 | Cc1ccc(-c2nc(-c3cc4cccc(OCc5cccc(F)c5)c4oc3=O)no2)cc1 | inactive: 60%
50 | CCOc1ccc(-n2c(Cc3ccccc3)nnc2SCc2nc(-c3cccs3)no2)cc1 | inactive: 75%
51 | Cn1c(=N)n(CC(=O)c2ccc(-c3ccccc3)cc2)c2ccccc21 | inactive: 120%
52 | Cc1ccn2c(Nc3c(C)cccc3C)c(-c3ccc(Cl)s3)nc2c1 | inactive: 32%
53 | Cc1cc(C)cc(NC(=O)C2CCN(S(=O)(=O)c3c(C)noc3/C=C/c3ccco3)CC2)c1 | inactive: 94%
54 | CCCCN(CCCC)C1=C(C(=O)c2ccccc2)N(CC)S(=O)(=O)c2ccccc21 | inactive: 67%
55 | COC(=O)CN1C(=O)C(C)(C)c2cc(S(=O)(=O)NCc3ccc(Cl)cc3)ccc21 | inactive: 56%
56 | Cc1ccc2scc(N3CCN(c4cccc(C(F)(F)F)c4)CC3)c(=O)c2c1 | inactive: 73%
